# The list shows a part of the results.
# Test system: T1, C. trachomatis L2/434/Bu expressing GFP (CTL2-GFP)
# T1 construct: L2/434/Bu GFP intracellular growth in HeLa cells
# Set-up: species or system HeLa; C. trachomatis total inclusion area by high-content imaging, normalised to DMSO
# Details: total inclusion area; 28.5 h, 10 µM; inhibitor
# In short: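 High-content images of fixed, Hoechst-stained infected cultures supply inclusion area and count (growth) plus nuclei number (viability), complementing bulk GFP/resorufin fluorescence. MIC determination is unchanged from the primary assay.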
row,Structure (SMILES),% of control remaining
1,COc1ccc([C@@]23CC[C@@H](NC(=O)Nc4ccccc4C(F)(F)F)C[C@@H]2N(C)CC3)cc1OC [CBK036466T],98.9867
2,O=C(NCc1ccccc1)c1ccncc1 [CBK200189],101.34
3,COc1ccc(-c2cc([C@H]3CN4CC[C@H]3C[C@@H]4CNC(=O)c3ccco3)n(C)n2)cc1 [CBK289099],122.278
4,COc1cccc2cc(C(=O)C3=C(O)C(=O)N(CCN4CCOCC4)C3c3ccc(F)cc3)oc12 (stereo not shown) [CBK266414],127.179
5,CCC(C)(C)c1ccc(S(=O)(=O)NCCCN2CCCC2)cc1 [CBK044126],92.5108
6,Cc1ccc2c(c1C)NC(=O)CC2c1ccc(F)cc1 (stereo not shown) [CBK288221],112.841
7,Cc1cc(C(F)(F)F)nn1CCCNC(=O)c1cc(-c2ccccc2)nc2ccccc12 [CBK267755],110.091
8,CCCC/C=C/c1nccnc1NCCCO [CBK038006],114.767
9,Cc1[nH]c(=O)[nH]c(=O)c1S(=O)(=O)N1CCOCC1 [CBK261060],73.7285
10,Cc1cccc(-c2noc(CCC(=O)NCC3CCCO3)n2)c1 (stereo not shown) [CBK268241],91.2497
11,O=C(Nc1ccc(S(=O)(=O)NCCN2CCOCC2)cc1)N1CCCC1 [CBK270015],86.1412
12,COc1ccc(OC)c(S(=O)(=O)N2CC[C@H]3CC(=O)N(CCN(C)C)CC[C@H]3C2)c1 [CBK288788],90.5898
13,CCCN(CCC#N)S(=O)(=O)c1ccc(C(C)C)cc1 [CBK043453],87.8267
14,COc1ccccc1OCc1ccc(Cl)s1 [CBK002782],24.4209
15,CCOC(=O)CSc1nc2ccccc2c(=O)n1Cc1ccccc1 [CBK054124],89.0994
16,CN(C(=O)CN1CCN(c2cc(-c3cc(C(F)(F)F)cc(C(F)(F)F)c3)ncn2)CC1)c1ccccc1 [CBK091125],126.878
17,COc1cc(CNCCO)cc(Br)c1OCc1cccnc1 [CBK269681C],89.3285
18,O=C(NC(NC1CCS(=O)(=O)C1)C(Cl)(Cl)Cl)c1ccc(Br)cc1 (stereo not shown) [CBK261091],87.8057
19,COC(=O)c1ccc(NC(=O)CSc2nnc(-c3ccc(C)cc3)n2N)cc1 [CBK266114],89.7178
20,Cn1c(C(C)(C)C)cs/c1=N\NS(=O)(=O)c1ccccc1 [CBK006830B],58.1955
21,CC(C)Nc1nc(NC(C)C)nc(Oc2ccc(C=O)cc2)n1 [CBK265043],92.7219
22,O=C(Nc1ccc2[nH]ccc2c1)c1cnc(-c2ccc(F)cc2)c(-c2ccncc2)c1 [CBK037451],95.6982
23,Cc1ccc(OCC(=O)NNC(=O)C2COc3ccccc3O2)cc1 (stereo not shown) [CBK263511],100.486
24,O=C(O)CC1S/C(=N/N=C/c2ccc(-c3cccc([N+](=O)[O-])c3)o2)NC1=O (stereo not shown) [CBK264517],97.6568
25,CCCc1cc(=O)[nH]c2nnc(SCC(=O)NC)n12 [CBK287685],116.256
26,O=C1CC(c2ccc3c(c2)OCO3)c2ccc3ccccc3c2N1 (stereo not shown) [CBK087469],92.4364
27,O=c1cc(O)c2cc([N+](=O)[O-])ccc2n1CCc1ccccc1 [CBK291165],124.612

row,Structure (SMILES),% of control remaining
1,COc1cc(CNc2nc(-c3c(C)cccc3C)cn3ccnc23)cc(OC)c1OC [CBK037415],108.863
2,COc1ccc([C@@]23CC[C@@H](NS(=O)(=O)Cc4ccccc4)C[C@@H]2N(C)CC3)cc1OC [CBK056665T],77.9253
3,O=C1N[C@@H](Cc2ccc(F)cc2)C(=O)N2CCN(C(=O)c3cccc(F)c3)C[C@H]12 [CBK289600],73.2377
4,O=C(NS(=O)(=O)c1ccccc1)c1ccccc1 [CBK288429],67.7292
5,COC(=O)c1cn([C@H]2CO[C@H]3[C@@H]2OC[C@H]3OC(=O)Nc2ccccc2)nn1 [CBK289492],105.556
6,Cc1noc(C)c1CC(=O)Nc1nc2c(cc1C#N)CCCC2 [CBK306429],41.4802
7,O=[N+]([O-])c1ccc(N2CCN(S(=O)(=O)Cc3ccccc3)CC2)cc1N1CCN(Cc2ccccc2)CC1 [CBK264951],83.0788
8,O=C(c1nccc2ccccc12)N1CCN(Cc2ccccc2)CC1 [CBK200176],113.402
9,CCNC(=O)Nc1ccc2ccc(-c3cccnc3)nc2n1 [CBK070652],80.7084
10,Cc1sc2nc(C(C)C)n(C3CCNCC3)c(=O)c2c1C [CBK282407],101.172
11,COc1cccc(C(NC(=O)C2CCN(C(=O)c3ccccc3)CC2)c2ccccn2)c1 (stereo not shown) [CBK060036],99.6871
12,COCCNC(=O)c1ccc(-c2cc(C(C)C)ccc2OC)nc1N(C)C [CBK106061],106.716
13,CC1(CNC(=O)c2ccc(N3CCCCC3)cc2)COC1 [CBK281746],81.1833
14,CC1CCN(CC(O)c2ccc3c(c2)CCCN3C(=O)C2CC2)CC1 (stereo not shown) [CBK282488],117.504
15,O=C(O)CCCn1cc(NC(=O)Cc2ccccc2F)cn1 [CBK270119],101.101
16,CS(=O)(=O)Nc1cc2ccccc2c(-c2ccncc2)n1 [CBK085746],94.6861
17,COc1cc(/C=N/n2cnnc2)ccc1OCc1cccc(C(=O)O)c1 [CBK264249],93.0765
18,CCn1c(C)nn(-c2nc3c(Cl)cccc3s2)c1=O [CBK026010],36.2683
19,Cc1ccc2c(c1)C(NC(=O)C1CC1C)CC1(CCOCC1)O2 (stereo not shown) [CBK284880],98.1675
20,C=CCN1CC2(c3ccccc3)CN(CC=C)CC(c3ccccc3)(C1)C2=O [CBK265987],90.439
21,CC1CN(c2ccc(CNc3ncccc3C#N)cn2)CCO1 (stereo not shown) [CBK305957],65.1142
22,Nn1cnn2c(SCC(=O)Nc3ccc(Cl)cc3)nnc12 [CBK025688],86.7934
23,O=c1[nH]c2ncc(-c3ccc(-c4ccccc4)cc3)nc2n1Cc1cccnc1 [CBK064282],131.999
24,O=C(COC(=O)c1cc(S(=O)(=O)N2CCCCC2)c(Cl)cc1Cl)c1ccccc1 [CBK261668],92.3243
25,CN(CC(=O)N1CCOCC1)S(=O)(=O)c1ccc2ccccc2c1 [CBK266946],98.2081
26,COc1cc(Nc2cc(-c3cccc(N)c3)nc3ccnn23)cc(OC)c1OC [CBK037236],83.0671
27,CCCc1ccc(N(C)C(=O)c2ccc(C(C)(C)C)cc2)cc1 [CBK161612],66.8839

row,Structure (SMILES),% of control remaining
1,OCCN1CCN(c2ccc(/C=C/c3ccccc3)cn2)CC1 [CBK036849],122.279
2,Cc1ccc(C)c(NC(=O)CSc2nnc(CCc3ccccc3)n2C)c1 [CBK266365],98.0743
3,CC1CN(Cc2ccccc2)CCN1c1cnccn1 (stereo not shown) [CBK013684],60.1322
4,COc1ccc(-c2cnc3[nH]c(=O)n(Cc4ccccc4)c3n2)cc1 [CBK064210],111.367
5,CCCc1cc(C(=O)NC(c2ccccc2)c2cccnc2)[nH]n1 (stereo not shown) [CBK282462],133.939
6,CC(NC(=O)Cn1cnc2ccccc21)c1ccccn1 (stereo not shown) [CBK281884],98.3438
7,O=C1CCCN1c1ccc(CN2CCN(C3CCCC3)C(=O)C2)cc1 [CBK281908],111.247
8,CCOC(=O)C(NC(=O)c1c(C)nn(C)c1C)c1cccc(C)c1C (stereo not shown) [CBK304253],41.0639
9,CCOC(=O)c1cnn2c(C)cc(C)nc12 [CBK101119],87.36
10,COC(=O)C(NC(=O)c1cnc(-c2cccc(C(F)(F)F)c2)c(-c2ccncc2)c1)c1ccccc1 (stereo not shown) [CBK037624],119.207
11,COc1ccc(CN2CCCC(c3nc(C)n4ccccc34)C2)cc1 (stereo not shown) [CBK282984],84.9408
12,c1ccc(CN2CCN(c3ccc(Nc4cc(-c5ccncc5)ncn4)cc3)CC2)cc1 [CBK037727],118.761
13,O=C(O)Cc1csc(SCc2cc(F)cc3c2OC(c2ccccc2)OC3)n1 (stereo not shown) [CBK295158],133.792
14,COc1cccc([C@H]2CC[C@H](N(CCN(C)C)C(=O)Nc3cc(F)ccc3F)CC2)c1OC [CBK050184],51.612
15,CCc1nnc(COC(=O)c2ccccc2NC(=O)Cc2ccccc2)o1 [CBK296762],76.9812
16,CCNC(=O)N1CCc2c([nH]c3ccc(OC)cc23)C12CCN(CCOc1ccccc1)C2 (stereo not shown) [CBK061690],94.49
17,COc1cncc(C(NC(=O)Cc2cn3ccsc3n2)[C@H]2C[C@H](O)C2)c1 (stereo partly shown) [CBK306642],58.5883
18,CNS(=O)(=O)c1cc(C(=O)NC2CCCc3ccccc32)n(C)c1 (stereo not shown) [CBK305048],57.2904
19,CC1CCCN(c2nc3nc[nH]c(=O)c3s2)C1 (stereo not shown) [CBK288120],127.962
20,COC(=O)c1ccccc1S(=O)(=O)Nc1nnn[nH]1 [CBK021321],91.0477
21,Cc1nc(C)n(C(C)CNC(=O)Cc2coc3cc(C)c(C)cc23)n1 (stereo not shown) [CBK282577],110.767
22,COc1ccc(NC(=O)CCSCCC(=O)O)cc1S(=O)(=O)N1CCCCC1 [CBK296655],127.718
23,Cc1cc(NS(=O)(=O)c2ccc(NC(=S)NC3CCCCC3)cc2)no1 [CBK268157],59.8964
24,OC1CCC(Nc2cncc(-c3ccc(F)cc3F)n2)CC1 (stereo not shown) [CBK065835],76.0598
25,Cc1nc(CCNc2ccc(-c3nc(C)c(C)c(=O)[nH]3)cn2)cs1 [CBK305497],28.9001
